The IC50 comes from the fitted curve, where viability falls to half of the control; fits outside the tested doses are given as limits. For AUC the same curve is integrated over the 256-fold range of doses and scaled to a fraction: 1 means no effect, lower means more sensitive. For part of these data: The top dose, if marked as inferred, was calculated from the reported fits.
Experiments:
Experiment in all cases: Viability of human cancer cell lines after 72 h of drug (GDSC screen)
KIN001-244 = compound: O=C(NC(COc1ccc2[nH]c(=O)[nH]c2c1)c1ccccc1)c1cccn(Cc2ccc(F)c(F)c2)c1=O [KIN001-244]; settings: top dose 20 µM; top dose inferred
Method: (§1)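 Human cancer cell lines in 384-well plates, medium with 10% serum, drug for 72 h over a 256-fold dose range (nine 2-fold or five 4-fold steps up to the top dose). Adherent lines were fixed and stained with the nucleic acid dye Syto60, suspension lines read with resazurin; signal relative to control wells, capped at 0 and 100%. One two-parameter sigmoid per drug and line, fitted in a mixed model over all curves with the slope shared within a line.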

AV-951 = compound: COc1cc2nccc(Oc3ccc(NC(=O)Nc4cc(C)on4)c(Cl)c3)c2cc1OC [AV-951]; settings: top dose 0.128 µM; top dose inferred
Method: as §1

HG-6-64-1 = compound: CCN1CCN(Cc2ccc(NC(=O)c3ccc(C)c(/C=C/c4cnc5[nH]ccc5c4OC)c3)cc2C(F)(F)F)CC1 [HG-6-64-1]; settings: top dose 5.12 µM; top dose inferred
Method: as §1

PF-4708671 = compound: CCc1cncnc1N1CCN(Cc2nc3ccc(C(F)(F)F)cc3[nH]2)CC1 [PF-4708671]; settings: top dose 10 µM; top dose inferred
Method: as §1

I-BET-762 = compound: CCNC(=O)C[C@@H]1N=C(c2ccc(Cl)cc2)c2cc(OC)ccc2-n2c(C)nnc21 [I-BET-762]; settings: top dose 20 µM; top dose inferred
Method: as §1

Trametinib = compound: CC(=O)Nc1cccc(-n2c(=O)n(C3CC3)c(=O)c3c(Nc4ccc(I)cc4F)n(C)c(=O)c(C)c32)c1 [Trametinib]; settings: top dose 1 µM
Method: as §1

Cell Line	AUC (KIN001-244)	IC50 (KIN001-244) [µM]	AUC (AV-951)	IC50 (AV-951) [nM]	AUC (HG-6-64-1)	IC50 (HG-6-64-1) [nM]	AUC (PF-4708671)	IC50 (PF-4708671) [µM]	AUC (I-BET-762)	IC50 (I-BET-762) [µM]	AUC (Trametinib)	IC50 (Trametinib) [nM]
NCI-H647 (non-small cell lung carcinoma, adherent)	0.864	18.9	0.975	> 128	0.825	3270	0.955	> 10	0.961	> 20	0.926	> 1000
NCI-H650 (lung adenocarcinoma, adherent)	0.892	> 20	0.984	> 128	0.876	> 5120	0.974	> 10	0.914	> 20	0.859	969
NCI-H661 (large cell lung carcinoma, adherent)	0.943	> 20	0.98	> 128	0.751	2010	0.827	7.87	0.873	> 20	0.864	> 1000
NCI-H727 (lung carcinoid, adherent)	0.933	> 20	0.972	> 128	0.62	852	0.959	> 10	0.875	> 20	0.365	20.7
NCI-H810 (large cell lung carcinoma, adherent)	0.848	13.9	0.987	> 128	0.762	1750	0.972	> 10	0.847	13.8	0.982	> 1000
NCI-H841 (small cell lung carcinoma, adherent)	0.9	> 20	0.988	> 128	0.928	> 5120	0.936	> 10	0.987	> 20	0.908	> 1000
NCI-H1048 (small cell lung carcinoma, adherent)	0.488	1.16	0.985	> 128	0.861	3640	0.944	> 10	0.954	> 20	0.981	> 1000
NCI-H1299 (large cell lung carcinoma, adherent)	0.889	> 20	0.981	> 128	0.758	2150	0.97	> 10	0.909	> 20	0.423	36.5
NCI-H1435 (lung adenocarcinoma, semi-adherent)	0.925	> 20	0.993	> 128	0.945	> 5120	0.984	> 10	0.992	> 20	0.99	> 1000
NCI-H1437 (lung adenocarcinoma, adherent)	0.923	> 20	0.981	> 128	0.909	> 5120	0.961	> 10	0.913	> 20	0.436	41.6
NCI-H1563 (lung adenocarcinoma, adherent)	0.84	17.8	0.976	> 128	0.868	> 5120	0.975	> 10	0.925	> 20	0.718	295
NCI-H1568 (lung adenocarcinoma, adherent)	0.973	> 20	0.976	> 128	0.806	3420	0.895	> 10	0.981	> 20	0.516	69.8
NCI-H1573 (lung adenocarcinoma, adherent)	0.959	> 20	0.99	> 128	0.986	> 5120	0.981	> 10	0.977	> 20	0.776	388
NCI-H1623 (lung adenocarcinoma, adherent)	0.906	> 20	0.984	> 128	0.982	> 5120	0.901	> 10	0.97	> 20	0.672	211
NCI-H1651 (lung adenocarcinoma, adherent)	0.977	> 20	0.987	> 128	0.781	2310	0.845	8.08	0.962	> 20	0.937	> 1000
NCI-H1688 (small cell lung carcinoma, adherent)	0.831	14.4	0.979	> 128	0.871	> 5120	0.963	> 10	0.972	> 20	0.947	> 1000
NCI-H1693 (lung adenocarcinoma, adherent)	0.938	> 20	0.97	> 128	0.942	> 5120	0.868	> 10	0.837	> 20	0.637	188

Cell Line	AUC (KIN001-244)	IC50 (KIN001-244) [µM]	AUC (AV-951)	IC50 (AV-951) [nM]	AUC (HG-6-64-1)	IC50 (HG-6-64-1) [nM]	AUC (PF-4708671)	IC50 (PF-4708671) [µM]	AUC (I-BET-762)	IC50 (I-BET-762) [µM]	AUC (Trametinib)	IC50 (Trametinib) [nM]
NCI-H1703 (lung adenocarcinoma, adherent)	0.923	> 20	0.75	50.2	0.726	1650	0.976	> 10	0.981	> 20	0.976	> 1000
NCI-H1755 (lung adenocarcinoma, adherent)	0.805	12.1	0.984	> 128	0.659	955	0.908	> 10	0.656	3.65	0.764	418
NCI-H1781 (lung adenocarcinoma, adherent)	0.881	> 20	0.989	> 128	0.986	> 5120	0.981	> 10	0.988	> 20	0.868	915
NCI-H1792 (lung adenocarcinoma, adherent)	0.962	> 20	0.985	> 128	0.609	617	0.987	> 10	0.99	> 20	0.269	14.9
NCI-H1793 (lung adenocarcinoma, adherent)	0.952	> 20	0.982	> 128	0.688	1340	0.928	> 10	0.981	> 20	0.766	526
NCI-H1915 (large cell lung carcinoma, adherent)	0.914	> 20	0.984	> 128	0.799	2500	0.988	> 10	0.953	> 20	0.175	6.37
NCI-H1944 (lung adenocarcinoma, adherent)	0.861	18.8	0.984	> 128	0.79	2450	0.952	> 10	0.895	> 20	0.624	141
NCI-H1993 (lung adenocarcinoma, adherent)	0.884	> 20	0.977	> 128	0.944	> 5120	0.945	> 10	0.94	> 20	0.652	189
NCI-H2009 (lung adenocarcinoma, adherent)	0.942	> 20	0.986	> 128	0.734	1550	0.986	> 10	0.947	> 20	0.624	140
NCI-H2023 (lung adenocarcinoma, adherent)	0.942	> 20	0.981	> 128	0.935	> 5120	0.98	> 10	0.974	> 20	0.559	94.2
NCI-H2029 (small cell lung carcinoma, adherent)	0.908	> 20	0.992	> 128	0.986	> 5120	0.991	> 10	0.974	> 20	0.989	> 1000
NCI-H2085 (lung adenocarcinoma, adherent)	0.804	11	0.985	> 128	0.778	2260	0.987	> 10	0.949	> 20	0.897	> 1000
NCI-H2087 (lung adenocarcinoma, semi-adherent)	0.899	> 20	0.985	> 128	0.699	1220	0.98	> 10	0.949	> 20	0.298	16.1
NCI-H2110 (non-small cell lung carcinoma, adherent)	0.667	3.69	0.984	> 128	0.773	2040	0.939	> 10	0.899	> 20	0.777	411
NCI-H2122 (lung adenocarcinoma, adherent)	0.976	> 20	0.989	> 128	0.907	> 5120	0.989	> 10	0.987	> 20	0.17	6.83
NCI-H2170 (lung squamous cell carcinoma, adherent)	0.976	> 20	0.987	> 128	0.929	> 5120	0.949	> 10	0.962	> 20	0.971	> 1000
